Measured values from patent publication US20250129053A1, “HERBICIDAL IMIDAZOLE COMPOUNDS” (SYNGENTA CROP PROTECTION AG, priority 2021, published 2025).
At least one read-out could not be matched to a standard name with certainty.

Experiments:
Type in all cases: in vivo
Details in all cases: 250 g/ha, evaluated after 13 days, five-point scale
[1] = tested on: Echinochloa crus-galli (ECHCG); assay: Post-emergence herbicidal glasshouse test
[2] = tested on: Amaranthus retroflexus (AMARE); assay: Pre-emergence herbicidal glasshouse test
[3] = tested on: Echinochloa crus-galli (ECHCG); assay: Pre-emergence herbicidal glasshouse test
[4] = tested on: Ipomoea hederacea (IPOHE); assay: Pre-emergence herbicidal glasshouse test
[5] = tested on: Amaranthus retroflexus (AMARE); assay: Post-emergence herbicidal glasshouse test
[6] = tested on: Amaranthus palmeri (AMAPA); assay: Post-emergence herbicidal glasshouse test
[7] = tested on: Amaranthus palmeri (AMAPA); assay: Pre-emergence herbicidal glasshouse test
[8] = tested on: Ipomoea hederacea (IPOHE); assay: Post-emergence herbicidal glasshouse test

Compound | percentage damage caused to the plant, ECHCG [1] | percentage damage caused to the plant, AMARE [2] | percentage damage caused to the plant, ECHCG [3] | percentage damage caused to the plant, IPOHE [4] | percentage damage caused to the plant, AMARE [5] | percentage damage caused to the plant, AMAPA [6] | percentage damage caused to the plant, AMAPA [7] | percentage damage caused to the plant, IPOHE [8]
FC(F)c1cn(Cc2ncc(Cl)cn2)c(-c2ccc(Cl)nc2)n1 [Compound 1.028, 5-chloro-2-[[2-(6-chloro-3-pyridyl)-4-(difluoromethyl)imidazol-1-yl]methyl]pyrimidine] | 4 (4=61-80%) | 5 (5=81-100%) | 5 (5=81-100%) | 5 (5=81-100%) | 4 (4=61-80%) | 4 (4=61-80%) | 5 (5=81-100%) | 4 (4=61-80%)
FC(F)(F)c1cn(Cc2ncc(Cl)cn2)c(-c2ccnc(Cl)c2)n1 [Compound 1.023] | 5 (5=81-100%) | 5 (5=81-100%) | 5 (5=81-100%) | 5 (5=81-100%) | 5 (5=81-100%) | 4 (4=61-80%) | 5 (5=81-100%) | 4 (4=61-80%)
N#Cc1ccc(-c2nc(C(F)(F)F)cn2Cc2ncc(Cl)cn2)nc1 [Compound 1.042] | 1 (1=0-20%) | 2 (2=21-40%) | 1 (1=0-20%) | 1 (1=0-20%) | 3 (3=41-60%) | 3 (3=41-60%) | 1 (1=0-20%) | 2 (2=21-40%)
Fc1cnc(Cn2cc(C(F)(F)F)nc2-c2cnc(Cl)c(F)c2)nc1 [Compound 1.025] | 4 (4=61-80%) | 5 (5=81-100%) | 5 (5=81-100%) | 5 (5=81-100%) | 5 (5=81-100%) | 5 (5=81-100%) | 5 (5=81-100%) | 4 (4=61-80%)
Fc1ncc(-c2nc(C(F)(F)F)cn2Cc2ncc(Cl)cn2)cc1Cl [Compound 1.022] | 5 (5=81-100%) | 5 (5=81-100%) | 5 (5=81-100%) | 5 (5=81-100%) | 5 (5=81-100%) | 5 (5=81-100%) | 5 (5=81-100%) | 4 (4=61-80%)
Fc1ccc(-c2nc(C(F)F)cn2Cc2ncc(Cl)cn2)cc1 [Compound 1.029, 5-chloro-2-[[4-(difluoromethyl)-2-(4-fluorophenyl)imidazol-1-yl]methyl]pyrimidine] | 4 (4=61-80%) | 5 (5=81-100%) | 4 (4=61-80%) | 5 (5=81-100%) | 5 (5=81-100%) | 5 (5=81-100%) | 5 (5=81-100%) | 5 (5=81-100%)
Cc1cc(-c2nc(C(F)(F)F)cn2Cc2ncc(Cl)cn2)cnc1Cl [Compound 1.020] | 5 (5=81-100%) | 5 (5=81-100%) | 5 (5=81-100%) | 5 (5=81-100%) | 5 (5=81-100%) | 5 (5=81-100%) | 5 (5=81-100%) | 4 (4=61-80%)
FC(F)(F)c1cn(Cc2ncc(Cl)cn2)c(-c2cnc(Cl)c(Cl)c2)n1 [Compound 1.027] | 4 (4=61-80%) | 5 (5=81-100%) | 5 (5=81-100%) | 5 (5=81-100%) | 4 (4=61-80%) | 4 (4=61-80%) | 5 (5=81-100%) | 4 (4=61-80%)
Fc1ccc(-c2nc(C(F)F)cn2Cc2ncc(Cl)cn2)cc1F [Compound 1.033] | 5 (5=81-100%) | 5 (5=81-100%) | 5 (5=81-100%) | 5 (5=81-100%) | 4 (4=61-80%) | 4 (4=61-80%) | 5 (5=81-100%) | 5 (5=81-100%)
Cc1cc(-c2nc(C(F)(F)F)cn2Cc2ncc(Cl)cn2)cnc1C#N [Compound 1.016, 5-[1-[(5-chloropyrimidin-2-yl)methyl]-4-(trifluoromethyl)imidazol-2-yl]-3-methyl-pyridine-2-carbonitrile] | 5 (5=81-100%) | 5 (5=81-100%) | 5 (5=81-100%) | 5 (5=81-100%) | 5 (5=81-100%) | 5 (5=81-100%) | 5 (5=81-100%) | 4 (4=61-80%)
Cc1ncc(-c2nc(F)cn2Cc2ncc(Cl)cn2)cn1 [Compound 1.030] | 1 (1=0-20%) | 3 (3=41-60%) | 1 (1=0-20%) | 2 (2=21-40%) | 3 (3=41-60%) | 2 (2=21-40%) | 3 (3=41-60%) | 3 (3=41-60%)
Fc1cn(Cc2ncc(Cl)cn2)c(-c2ccc(C(F)(F)F)cc2)n1 [Compound 1.032] | 4 (4=61-80%) | 5 (5=81-100%) | 5 (5=81-100%) | 5 (5=81-100%) | 3 (3=41-60%) | 3 (3=41-60%) | 5 (5=81-100%) | 4 (4=61-80%)
Cc1cc(-c2nc(C(F)(F)F)cn2Cc2ncc(Cl)cn2)cnc1F [Compound 1.018] | 5 (5=81-100%) | 5 (5=81-100%) | 5 (5=81-100%) | 5 (5=81-100%) | 5 (5=81-100%) | 5 (5=81-100%) | 5 (5=81-100%) | 4 (4=61-80%)
COc1cc(OC)nc(Cn2cc(C(F)(F)F)nc2-c2ccc(C(F)(F)F)cc2)n1 [Compound 1.062] | 1 (1=0-20%) | 1 (1=0-20%) | 1 (1=0-20%) | 1 (1=0-20%) | 1 (1=0-20%) | 1 (1=0-20%) | 1 (1=0-20%) | 1 (1=0-20%)
Fc1ccc(-c2nc(C(F)(F)F)cn2Cc2ncc(Cl)cn2)cc1F [Compound 1.046] | 5 (5=81-100%) | 5 (5=81-100%) | 5 (5=81-100%) | 5 (5=81-100%) | 5 (5=81-100%) | 5 (5=81-100%) | 5 (5=81-100%) | 5 (5=81-100%)
Fc1cc(-c2nc(C(F)F)cn2Cc2ncc(Cl)cn2)cnc1Cl [Compound 1.026, 5-chloro-2-[[2-(6-chloro-5-fluoro-3-pyridyl)-4-(difluoromethyl)imidazol-1-yl]methyl]pyrimidine] | 4 (4=61-80%) | 5 (5=81-100%) | 5 (5=81-100%) | 5 (5=81-100%) | 4 (4=61-80%) | 4 (4=61-80%) | 5 (5=81-100%) | 5 (5=81-100%)
Fc1cc(-c2nc(C(F)(F)F)cn2Cc2ncc(Cl)cn2)ccn1 [Compound 1.017] | 5 (5=81-100%) | 5 (5=81-100%) | 5 (5=81-100%) | 5 (5=81-100%) | 5 (5=81-100%) | 5 (5=81-100%) | 5 (5=81-100%) | 4 (4=61-80%)
FC(F)c1cn(Cc2ncc(Cl)cn2)c(-c2ccc(Cl)cc2)n1 [Compound 1.031] | 4 (4=61-80%) | 5 (5=81-100%) | 5 (5=81-100%) | 5 (5=81-100%) | 4 (4=61-80%) | 4 (4=61-80%) | 5 (5=81-100%) | 5 (5=81-100%)
